This note sets out measurements from the RNAGym collection of RNA variant scans (doi:10.7554/elife.90254).

The source gives no read counts; variants with many changes may rest on few reads.

B1: OR4K15 (parent)
chain: GUUAACGGUCAUAGGCCAUGGAAACUAGGAGCACCAUUUCGCUGCCAGUGAAGAAAUGAACAAAGAAAAUCUGGGCCAGGCAGGCAUCAAAAGAAAUAGUCUUGCGCUCAACCAGAAAGUCUGUAAUCAUUUUAAGGGUA

The variants in the series derive from B1. Briefly: self-cleavage, relative activity (ratio to wild type); higher = more cleavage; in vitro, sequencing; the parent is a self-cleaving ribozyme.
Take AUUAACGGUCAUAGGUCAUGGAAACUAGGAGCACCAUUUCGCUGCCAGUGAAGAAAUGAACAAAGAAAAUCUGGGCCAGGCAGGCAUCAAGAGAAAUAGUCUUGCGCUCAACCAGAAAGUCUGUAAUCAUUUUAAGGGUA: the self-cleavage stood at 1.33.
The same measure for ACUAACGGUCAUAGGCCAUGGAAACUAGGAGCACCAUUUCGCUGCCAGUGAAGAAAUGAACAAAGAAAAUCUGGGCCAGGCAGGCAUCUAAAGAAAUAGUCUUGCGCUCAACCAGAAAGUCUGUAAUCAUUUUAAGGGUA: 1.52.
As to AUUAACGGUCAUAGGCCAUGGAAACUAGGAGCACCAUUUCGCUGCCAGUGAAGAAACGAACAAAGAAAAUCUGGGCCAGGCAGGCUUCAAAAGAAAUAGUCUUGUGCUCAACCAGAAAGUCUGUAAACAUUUUAAGGGUA, the self-cleavage turned out to be 0.28.
Turning to UCUAACGGCCAUAGGCCAUGGAAACUAGGAGCACCAUUUCGCUGCCAGUGAAGAAAUGAACAAAGAAAAUCUGGGCCAGGCAGGCAUCUAAAGAAAUAGUCUUGCGCUCAGCCAGAAAGUCUGUAAUAAUUUUAAGGGUA, the self-cleavage is 0.05.
The value for GAUAACGGUCAUGGGCCAUGGAAGCUAGGAGCACCAUUUCGCUGCCAGUGAAGAAAUGAACAAAGAAAAUCUGGGCCAGGCAGGCAUCAAAAGAAAUAGUCUUGCGCUCAACCAGAAAGUCUGUAAUCAUUUUAAGGGUA was 0.99; that for UUUGACGGUCAUAGGCCGUGGAAACUAGGAGCACCAUUUCGCCGCCAGUGAAGAAAUGAUCAAAGAAAAUCUGGGCCAGGCAGGCAUCAAAAGAAAUUGUCUUGCGCUCAACCAGAAAGUCUGUAAUCAUUUUAAGGGUA was 1.2.
The value for GAUAACGGUCAUAGGCCAUGGAGACUAGGAGCACCAUUUCGCUGCCAGUGGAGAAAUGAACAAAGAAAAUCUGGGCCAGGCAGGCAUCAAAAGAAAUAGUCUUGCGCUCAACCAGGAAGUCUGUAAUCAUUUUAAGGGUA was 0.34; that for AUUAACGGCCAUAGGCCACGGAAACUAGGAGCACCAUUUCGCUGCCAGUGAAGGAAUGAACAAAGAAAGUCUGGGCCAGGCAGGCAUCAAAAGAAAUAGUCUUGCGCUCAACCAGAAAGUCUGUAAUCAUUUUAAGGGUA was 1.29.
With UUUAACGGUCAUAUGCCAUGGAAACUAGGAGCACCAUUUCGCUGCCAGUGAAGAAAUGAACAAAGAAAAUCUGGGCCAGGCUGGCACCAAGAGAAAUAGUCUUGCGCUCAACCAGAAAGUCUGUAAUCAUUUUAAGGGUA, the self-cleavage amounted to 0.11.
The value for GAUAACGGUCAUAGGCCUUGGAAACCAGGAGCGCCAUUUCGCUGCCAGUGAAGAAAUGAACAAAGAAGAUCUGGGCCGGGCAGGCAUCAAAAGAAAUAGUCUUGCGCUCAACCAGAAAGUCUGUAAUCAUUUUAAGGGUA was 0.3; that for GAUAACGGUCAUAGGCCAUGGAAACUAGGUGCACCAUUUCGCUGCCAGUGAAGAGAUGAACAAAGAAAACCUGGGCCAGGCGGGCAUCAAAAGAAAUAGUCUUGCGCUCAACCAGAAAGUCUGUAAUCAUUUUAAGGGUA was 0.6; that for AUUAACGGUCAUAGGCCAUGGAAACUAGGAGCGCCAUUUCGCUGCCAGUGUAGAAAUGAACAAAGAAAAUCUGGGCCAGGCAGGCGUCAAAAGAAACAGUCUCGCGCUCAACCAGAAAGUCUGUAAUCAUUUUAAGGGUA was 0.57.
With GAUAACGGUCAUAGGCCAUGGAAACUAGGAGCGCCAUUUCGCUGCCAGUGAAUAAAUGAACAAAGAAAAUCUGGGCCAGGCAGGCAUCAAAAGAAAUAGUCUUGCGCUCAACCAGAAAGUCUGUAACCAUUUUAAGGGUG, the self-cleavage turned out to be 0.7.
The value for UUUAACGGUCAUAGGCCAUGGAAACUAGGAGCCCCAUUUCGCUGCCAGUGAAGAAAUGAACAAAGAAAAUCUGGGCCAGGCAGACAUCAAAAGAAAUAGUCUUGCGCUCGACCAGAAAGUCUGUAAUCAUUUUAAGGGUA was 0.2; that for UCUAACGGUCAUAGGCCAUGGAAACUAGGAGCACCAUUUCGCUGCCAGUGAAGAAAUGAACAAAGAAAAUCUGGGCCAGGCAGGCAUCAAAAGAAAUAGUCUUGCGCUCAACCAGAGAGUCUGUAAUCAUUUUAAGGGUA was 1.72.
The value for AUUAACGGUCAUAGGCCAUGGAAACUAGGAGCACCAGUUCGCUGCCAGUGAAGAAAUGAACAAAGAAAUUCUGGGCCAGGCAGGCAUCAAAAGAAAUAGUCUUGCGCUCAACCAGAAAGUCUGUAAUCAUUUUAAGGGUA was 1.82; that for AUUAACGGUCAUAGGCCAUGGAAACUAGGAGCGCCAUUCCGCUGCCAGUGAAGAAAUGAACAAAGAAAAUCUGGGCCAGGCAGGCAUCAAAAGAAAUAGUCUUACGCUCAACCAGAAAGUCUGUAAUCAUUUUAAGGGUA was 0.06; that for UUUAACGGACAUAGGCCAUGGAAACUAGGGGCACCAUUUCGCGGCCAGUGAAGAAAUGAACAAAGAAAAUCUGGGCCAGGCAGGCAUCAAAAGAAAUAGUCUUGCGCUCAACCAGAAAGUCUGUAAUCAUUUUAAGGGUA was 1.77.
The same measure for CUUAGCGGUCAUAGGCCAUGGAAACUAGGAGCACCAUUACGCUGCCAGUGAAGAAAUGAACAGAGAAAAUCUGGGCCAGGCAGGCAUCAAAAGAAAUAGUCUUGCGCUCAACCAGAAAGUCUGUAAUCAUUUUAAGGGUA: 0.29; for UUUAACGGUCAUAGGCCAUGGAAACUAGGAGCCCCAUUUCGCUGCCAGUGAAGAAAUGAACAAAGAAAAUCUGGGCCAGGCAGGCAUCAAAAGAAAUAGUCUUGCGCUCAACCAGAAAGUCUGUAAUCAUUUUAUGGGUA: 1.71.
As to UUUAACGGUCAUAGGCCAUGGAAACUAGGAGCACCAUUUCGCUGCCAGUGAAGAAAUGUACAGAGAAAAUCUGGGCCAGGCUGGCAUCAGAAGAGAUAGUCUUGCGCUCAACCAGAGAGUCUGUGAUCAUUUUAAGGGUA, the self-cleavage was 0.02.
Take GAUAACGGUCAUAGGCCAUGGGAACUAGGAGCACCAUUUCGCUGCCAGGGAAGAAAAGAACAAAGAAAAUCUGGGCCAGGCAGGCAUCAAAAGAAAUAGUCUUGCGCUCAACCAGAAAGUCUGUAAUCAUUUUAAGGGUA: the self-cleavage was 1.49.
The same measure for AUCAACGGUCAUAGGCCAUGGAAACUAGGAGCACCAUUUCGCUGCCAGUGAAGAAGUGAGCAAAGAAAAUCUGGGCCAGGCAGGCAUCAAAAGAAAUAGUCUUGCGCUCAACCAGAAAGUCGGUAAUCAUUUUAAGGGUA: 2.91.
The same measure for GAUAGCGGUCACAGGCCAUGGAAACUAGGAGCACCAUUUCGCUGCCAGCGAAGAGAUGAACAAAGAAAAUCUGGGCCAGGCAGGCAUCAAAAGAAAUAGUCUUGCGCUCAACCAGAAAGCCUGUAAUCAUUUUAAGGGUA: 0.32; for GAUAACGGUCAUAGGCCAUGGAGACUAGGAGCACCAUUUCGCUGCCAGUGAAGAAAUGAACAAGGAAAAGCUGGGCCAGGCAGGCAUCAAAAGAAAUAGUCUUGCGCUCAACCAGAAAGUCUGUAAUCCUUUUAAGGGUA: 0.34.
The same measure for AUUAACGGCCAUAGGCCAUGGAAACUAGGAGCACUAUUUCGCUGCCAGUGAAGAAAUGAACAAAGAAAAUCUGGGCCAGGCAGGCAUCAAAAGAAAUAGUCUUGCGCUCAACCAGAAAGUCUGUAAUCAUUUUAAGGGUA: 0.25; for AUUAACGGUCAUAGGCCAUGGAGACUAGGAGCACCAUUUCGCUGCCAGUGAAGAAAUGAACAAAGAAAAUCUGGGCCAGGCAGGCAUCAAAAGAAAUAGUCUAGCGCUCAACCAGAGAGUCUGUAAUCAUUUUAAGGGUA: 1.58; for GAUAACGGUCAUGGGCCAUGGAAGCUAGGAGCACCAUUUCGCUGCCAGUGAAGAAAUGUACAAAGAAAAUCUGGGCCAGGCAGGCACCAAAAGAAAUAGUCUUGCGCUCAACCAGAAAGUCUGUAAUCAUUUUAAGGGUA: 0.57.
GAUAACGGUCUUAGGCCAUGGAAACUAGGAGCACCAUUUCGCUGCCAGUGAAGAAAUGAACAAAGAAAAUCUGGGCCAGGCAGGCAUCAAAAGAAAUAGUCAUGCGCUCAACCAGAAAGUCUGUAAUCAUUUUAAGGGUA: the self-cleavage amounted to 0.35.
The same measure for GAUAGCGGUCAUAGGCCAUGGAAACUAGGAGCGCCAUUUCGCUGCCAGUGAAGGAAUGAACGAAGAAAAUCUGGGCCAGGCAGGCAUCAAAAGAAAUAGUCUUGCGCUCAACCAGAAAGUCUGUAAUCAUUUUAAGGGUA: 0.21; for UUUAACGGUCAUAGGCCAUGGAAACUAGGAGCACCAUUUCGCUGCCAGUGAAGGAAUAAACAAAGAAAAUCUGGGCCAGGCAGGCAUCAAAAGAAAUAGUCUUGCGCUCAACCAGAAAGUCUGUAAUCAUUUUAAGGGUA: 1.9; for GAUAACGGUCAUAGGCCAUGGGAACUAGGAGCACCAUUUCGCUGCCAGUGAAGAAAUGAACAAAGCAAAUCUGGGCCAGGCAGGCAUCAAAAGAAAUAGUCUUGCGCUCAACCAGAAAGUCUGUAAUCAUUUUAAGGGUA: 0.87.
GAUAACGGUCAUAGGCCAUGGAAACUAGGUGCACCAUUUCGCUGCCAGUGAAGAAAUGAACGAAGAAAAUCUGGGCCAGGCAGGCAUCAAAAGAAAUAGUCUUGCGCUCAACCAGAAAGUCUGUAAUCAUUUUAAGGGUA: the self-cleavage turned out to be 0.73.
On to GAUAACGGUCGUAGGCCAUGGAAACUAGGAGCACCAUUUCGCUGCCAGUGAAGGAAUGAACAAAGAAAAUCUGGGCCAGGCAGGCAUCAAAAGAAAUAGUCUUGCGCUCAACCGGAAAGUCUGUAAUCAUUUUAAGGGUA, for which the self-cleavage stood at 0.74.
The value for GAUAGCGGUCAUAGGCCAUGGAAACUAGGAGCACCAUUUCGCUGCCGGUGAAGAAAUGAACAAAGAAAAUCUGGGCCAGGCAGGCAUCAAAAGAAAUAGUCUUGCGCUCAACCAGAAAGUCUGUAAUCAUCUUAAGGGUA was 1.63; that for GAUAUCGGUCAUAGGCCACGGAAACUAGGAGCACCAUUUCGCUGCCAGUGAAGAAAUGAACAAAGAAAAUCUGGGCCAGGCAGGCAUCAAAAGAAAUAGCCUUGCGCUCAACCAGAAAGUCUGUAAUCAUUUUAAGGGUA was 1.86.
Regarding AUUAACGGUCAUAGGCCACGGAAACUAGGAGCACCAUUUCGCUGCCAGUGAAGAAACGAACAAAGAAAAUCUGGGCCUGGCAGGCAUCAAAAGAAAUAGUCUUGCGCUCAACCAGAAAGUCUGUAAUCAUUUUAAGGGUA, the self-cleavage came to 0.58.
The value for AUUAACGGUCAUUGGCCAUGGAAACUAGGAGCACCAUUUCGCUGCCAGUGAAGAAAUGUACCAAGAAAAUCUGGGCCAGGCAGGCCUCAAAAGAAAUAGUCUUGCGCUCAACCAGAAAGUCUGUAAUCAUUUUAAGGGUA was 0.82; that for UUUAACGGUCAUAGGCCAUGGAGCCUAGGAGCACCAUUUCGCUGCCAAUGAAGAAGUGAACAAAGAAAAUCUGGGCCAGGCAGGCAUCAAAAGAAAUAGUCUUGCGCUCAACCAGAAAGUCUGUAAUCACUUUAAGGGUA was 0.46; that for UUUAGCGGUCAUAGGCCAUGGUAACUAGGAGCACCAUUUCGCUGCCAGUGAAGAAAUGAACGAAGAAAAUCUGGGCCAGGCAGGCAUCAAAAGAAAUAGUCUUGCGCUCAACCAGAAAGUCUGUAAUCAUUUUAAGGGUA was 0.71.
The same measure for AUUAACGGACAUAGGCCAUGGAAACUAGGAGCACCAUCUCGCUGCCAGUGAAGAAAUGAACAAAGGAAAUCUGGGCCAGGCAGGCAUCAAAAGAAAUAGUCUUGCGCUCAGCCAGAAAGUCUGUAAUCAUUUUAAGGGUA: 0.09.
